{"source": "paper PMC8592882", "about": "“Naturally occurring cancer-associated mutations disrupt oligomerization and activity of protein arginine methyltransferase 1 (PRMT1)” (The Journal of Biological Chemistry, 2021)", "biological_target": "the molecule itself", "assay": "AUC; sedimentation velocity, 3 uM protein, 50 mM sodium phosphate, 2 mM EDTA, pH 7.6, 2 mM DTT added to appropriate tubes, 20 C, 40,000 rpm, absorbance at 280 nm, c(s) analysis in Sedfit", "data": [{"protein": "wild-type R. norvegicus PRMT1 (rPRMT1) (enzyme, R. norvegicus protein arginine methyltransferase 1, splice variant PRMT1V1 (rPRMT1); pET28b vector coding for a His(6) tag with thrombin and TEV cleavage sites; Printed monomer mass 43.5 kDa; an anti-His antibody detects the protein on native PAGE blots; also called WT PRMT1; WT rPRMT1; source: E. coli BL21 DE3, purified (HisTrap)) not shown", "values": [{"measurement": "stoichiometry N", "result": 4}]}]}
